# According to PubChem BioAssay (Tox21):
# The inconclusive results got no clear call from the source; some entries with a clear call stand among them for comparison. Entries that show only a call come without a potency. For some assays here: A potency beside an inconclusive call is a rough fit, not a confirmed value. The source made the active and inactive calls. Unless noted, calls follow the shape of the dose curve; as a rule, active = well fitted curve in the direction sought with a large enough effect in the repeat runs; inconclusive = weak or mixed curves; inactive = no such curve, though single readings can be large; an effect the other way counts as inactive or inconclusive.
# Columns and labels:
# [1] = biological target: Androgen receptor (Homo sapiens) (UniProt P10275); assay: qHTS assay to identify small molecule antagonists of the androgen receptor (AR) signaling pathway using the MDA cell line (AID 743042; also: nearly all actives have a fitted effect of over 55% in size)
# UniProt P10275, sequence (P10275 whole entry, looked up): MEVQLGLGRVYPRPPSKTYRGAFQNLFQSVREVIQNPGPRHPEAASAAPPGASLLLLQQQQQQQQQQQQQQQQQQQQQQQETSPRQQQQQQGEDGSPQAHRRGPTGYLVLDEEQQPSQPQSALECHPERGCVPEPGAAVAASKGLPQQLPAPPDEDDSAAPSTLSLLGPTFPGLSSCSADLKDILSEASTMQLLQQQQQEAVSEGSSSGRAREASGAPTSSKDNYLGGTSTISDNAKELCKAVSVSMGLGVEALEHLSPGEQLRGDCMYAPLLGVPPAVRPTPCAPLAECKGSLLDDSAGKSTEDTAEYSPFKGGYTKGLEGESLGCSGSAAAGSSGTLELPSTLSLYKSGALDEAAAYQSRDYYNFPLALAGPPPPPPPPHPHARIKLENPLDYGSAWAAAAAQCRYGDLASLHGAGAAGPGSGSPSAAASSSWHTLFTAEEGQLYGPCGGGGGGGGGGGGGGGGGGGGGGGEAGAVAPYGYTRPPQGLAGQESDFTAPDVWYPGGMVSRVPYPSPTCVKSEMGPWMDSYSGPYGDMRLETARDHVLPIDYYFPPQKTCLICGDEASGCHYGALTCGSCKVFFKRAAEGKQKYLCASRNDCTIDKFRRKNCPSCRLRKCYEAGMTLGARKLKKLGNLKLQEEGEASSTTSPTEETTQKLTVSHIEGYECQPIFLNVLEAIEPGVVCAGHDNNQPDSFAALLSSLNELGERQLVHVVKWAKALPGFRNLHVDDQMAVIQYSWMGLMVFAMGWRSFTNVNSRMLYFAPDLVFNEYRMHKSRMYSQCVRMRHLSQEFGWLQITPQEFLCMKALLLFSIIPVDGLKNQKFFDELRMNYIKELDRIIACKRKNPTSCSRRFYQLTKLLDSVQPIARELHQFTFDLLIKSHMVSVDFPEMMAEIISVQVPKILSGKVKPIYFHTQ
# In short: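 MDA-kb2 cells (human breast carcinoma, stably carrying an MMTV-luciferase reporter responsive to AR and GR) were plated at 3,000 cells/well and preincubated 5 hr at 37C, then given compound plus R1881 agonist for 16 h. ONE-Glo luminescence was read.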
# [2] = biological target: Estrogen receptor (Homo sapiens) (UniProt P03372); assay: qHTS assay to identify small molecule antagonists of the estrogen receptor alpha (ER-alpha) signaling pathway (AID 743069; active = well fitted curve in the direction sought with a large enough effect in the signal ratio in the repeat runs, not every such curve was filed as active; inconclusive = weak or mixed curves, or effect the other way; inactive = no such curve, though single readings can be large or run the other way; the % refers to the signal ratio); details: HEK293 ER-alpha-UAS-bla, beta-lactamase ratio, antagonist mode; activity, negative = inhibition: at 69.4 µM (top of the series) unless noted
# UniProt P03372, sequence (P03372 whole entry, looked up): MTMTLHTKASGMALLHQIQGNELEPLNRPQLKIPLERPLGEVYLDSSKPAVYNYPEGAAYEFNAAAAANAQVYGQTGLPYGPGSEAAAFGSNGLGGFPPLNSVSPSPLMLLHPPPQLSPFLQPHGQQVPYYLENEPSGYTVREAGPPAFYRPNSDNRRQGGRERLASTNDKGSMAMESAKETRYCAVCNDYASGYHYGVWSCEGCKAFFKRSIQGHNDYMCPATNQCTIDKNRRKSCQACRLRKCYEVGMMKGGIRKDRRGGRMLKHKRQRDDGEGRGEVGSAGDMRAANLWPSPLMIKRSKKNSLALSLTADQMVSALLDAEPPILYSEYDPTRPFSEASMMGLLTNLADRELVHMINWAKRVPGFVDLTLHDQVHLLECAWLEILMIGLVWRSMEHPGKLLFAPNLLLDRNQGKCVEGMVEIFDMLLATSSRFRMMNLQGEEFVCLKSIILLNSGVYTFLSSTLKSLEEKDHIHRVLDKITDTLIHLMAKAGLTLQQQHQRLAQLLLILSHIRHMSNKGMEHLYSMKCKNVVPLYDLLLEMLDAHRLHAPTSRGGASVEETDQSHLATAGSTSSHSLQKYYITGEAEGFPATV
# In short: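 Screening used a UAS-driven beta-lactamase reporter integrated into HEK293 cells expressing ER-alpha, stimulated with 17beta-estradiol alongside test compounds over 18 hr at 37C; signal came from LiveBLAzer B/G FRET fluorescence.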
# [3] = qHTS assay to identify small molecule antagonists of the estrogen receptor alpha (ER-alpha) signaling pathway - cell viability counter screen (AID 743074; calls by dose curve; also: nearly all actives have a fitted effect of over 45% in size; also: potency is read from the fitted curve at half-maximal effect)
# [4] = biological target: Androgen receptor (Homo sapiens) (UniProt P10275); assay: qHTS assay to identify small molecule agonists of the androgen receptor (AR) signaling pathway (AID 743036; active = well fitted activation curve with a large enough effect in the signal ratio in the repeat runs, with a control signal flat, not every such curve was filed as active; inconclusive = weak or mixed curves, or effect the other way; inactive = no such curve, though single readings can be large or run the other way; the % refers to the signal ratio; also: potency is read from the fitted curve at half-maximal effect); details: HEK293 AR-UAS-bla GripTite, beta-lactamase FRET ratio, 16 h; activation: at 62.4 µM (top of the series) unless noted
# In short: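 AR-UAS-bla HEK293 cells, plated 4 h before dosing, were treated with compound for 16 h at 37C. beta-Lactamase reporter read after 2 h with LiveBLAzer B/G FRET substrate at room temperature.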
# [5] = biological target: Estrogen receptor (Homo sapiens) (UniProt P03372); assay: qHTS assay to identify small molecule agonists of the estrogen receptor alpha (ER-alpha) signaling pathway using the BG1 cell line (AID 743079); details: BG1Luc4E2 cells, ERE-luciferase agonist, 22 h; activation: at 70.3 µM (top of the series) unless noted; also: nearly all actives have a fitted effect of over 20% in size; also: potency is read from the fitted curve at half-maximal effect
# [6] = qHTS assay to identify small molecule antagonists of the thyroid receptor (TR) signaling pathway (AID 743065); also: nearly all actives have a fitted effect of over 55% in size
# In short: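 GH3.TRE-Luc rat pituitary cells carrying two TR response elements driving luciferase were plated for 4 h, given compound plus 1 nM T3 (final), and incubated 23.5 h at 37 C. ONE-Glo luminescence measured reporter inhibition; CellTiter-Fluor fluorescence tracked cytotoxicity.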
# [7] = biological target: Androgen receptor (Homo sapiens) (UniProt P10275); assay: qHTS assay to identify small molecule antagonists of the androgen receptor (AR) signaling pathway (AID 743035; active = well fitted inhibition curve with a large enough effect in the signal ratio in the repeat runs, not every such curve was filed as active; inconclusive = weak or mixed curves, or effect the other way; inactive = no such curve, though single readings can be large or run the other way; the % refers to the signal ratio); details: HEK293 AR-UAS-bla, R1881-stimulated, beta-lactamase FRET, 16 h; activity change, negative = inhibition: at 58.5 µM (top of the series) unless noted
# In short: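 Quantitative HTS of the Tox21 10K library used HEK293 AR-UAS-bla cells stimulated with R1881 alongside compound for 16 h at 37C, followed by beta-lactamase FRET detection (LiveBLAzer B/G, 2 h, RT).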
# [8] = qHTS assay to identify small molecule antagonists of the androgen receptor (AR) signaling pathway using the MDA cell line - cell viability counter screen (AID 743041; also: nearly all actives have a fitted effect of over 45% in size); details: MDA-kb2 viability, CellTiter-Fluor, 16 h, cells co-treated with R1881 androgen agonist; viability change, negative = cytotoxic: at 70.3 µM (top of the series) unless noted
# In short: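 qHTS viability read-out; MDA-kb2 AR-luc; R1881-stimulated; 16 h exposure at 37C, 0% CO2; CellTiter-Fluor, 30 min; fluorescence intensity.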
# Aromatase (Homo sapiens) = Aromatase (Homo sapiens) (UniProt P11511); assay: qHTS assay to identify aromatase inhibitors (AID 743083); also: nearly all actives have a fitted effect of over 55% in size; also: potency is read from the fitted curve at half-maximal effect
# UniProt P11511, sequence (P11511 whole entry, looked up): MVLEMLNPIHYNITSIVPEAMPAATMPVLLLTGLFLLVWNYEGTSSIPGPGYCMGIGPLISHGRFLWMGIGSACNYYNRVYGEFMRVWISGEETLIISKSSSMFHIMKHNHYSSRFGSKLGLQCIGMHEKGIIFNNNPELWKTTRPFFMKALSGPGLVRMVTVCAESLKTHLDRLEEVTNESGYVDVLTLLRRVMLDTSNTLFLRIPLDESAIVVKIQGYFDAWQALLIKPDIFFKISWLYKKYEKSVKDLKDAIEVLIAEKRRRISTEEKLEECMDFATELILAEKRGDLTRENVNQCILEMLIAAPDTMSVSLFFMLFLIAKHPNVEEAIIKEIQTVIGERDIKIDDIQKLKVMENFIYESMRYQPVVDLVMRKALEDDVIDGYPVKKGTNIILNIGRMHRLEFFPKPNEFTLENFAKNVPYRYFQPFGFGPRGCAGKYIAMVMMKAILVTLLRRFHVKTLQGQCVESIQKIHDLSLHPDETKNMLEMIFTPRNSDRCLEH
# [9] = test system: thyroid hormone receptor (rat, GH3 cells); assay: qHTS assay to identify small molecule agonists of the thyroid receptor (TR) signaling pathway (AID 743066; calls by dose curve); details: GH3.TRE-Luc cells, TR agonist luciferase, 24 h; activation: at 83.9 µM (top of the series) unless noted
# [10] = qHTS assay to identify aromatase inhibitors - cell viability counter screen (AID 743084); details: MCF-7 aro ERE viability, CellTiter-Fluor, 24 h; activity change, negative = cytotoxicity: at 70.3 µM (top of the series);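 also: cells stimulated with testosterone during compound exposure; potency is read from the fitted curve at half-maximal effect; nearly all actives have a fitted effect of over 55% in size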
# [11] = qHTS assay to identify small molecule antagonists of the thyroid receptor (TR) signaling pathway - cell viability counter screen (AID 743064); details: GH3.TRE-Luc viability, CellTiter-Fluor, 24 h; activity change, negative = cytotoxic: at 70.3 µM (top of the series) unless noted; also: nearly all actives have a fitted effect of over 50% in size; also: potency is read from the fitted curve at half-maximal effect
# In short: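 GH3.TRE-Luc rat pituitary cells dosed after 4 hr plating, co-stimulated with T3 at 1 nM final, incubated 23.5 h at 37 C. Viability measured in the same wells by CellTiter-Fluor fluorescence after 30 min further at 37 C.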
# [12] = biological target: Estrogen receptor (Homo sapiens) (UniProt P03372); assay: qHTS assay to identify small molecule agonists of the estrogen receptor alpha (ER-alpha) signaling pathway (AID 743075; calls by dose curve)
# [13] = qHTS assay to identify small molecule antagonists of the estrogen receptor alpha (ER-alpha) signaling pathway using the BG1 cell line (AID 743080; calls by dose curve;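 also: BG1 cells stimulated with 17beta-estradiol alongside compound; nearly all actives have a fitted effect of over 25% in size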); details: BG1Luc4E2 ERE-luciferase antagonist mode, luminescence; activity change, negative = inhibition: at 70.3 µM (top of the series) unless noted
# In short: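 Quantitative HTS on the Tox21 10K library: BG1 cells with endogenous ER-alpha and ERE-luciferase reporter, 17beta-estradiol stimulation, 21.5 h compound exposure, luminescence endpoint with parallel fluorescence cytotoxicity counter-read.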
# Tags tell the direction and shape of the fitted curve or compound fluorescence and quenching.
smiles,measurement,setting,value
CC(C)(CO)COC(=O)C(C)(C)CO,Potency,[1],inactive
same,Potency,[2],inactive
same,Potency,[3],"inconclusive: 21.9 µM [cytotoxic, single point]"
CC(C)(C)NC(N)=O,Potency,[4],inconclusive: 54.9 µM
NC(=O)c1ccccc1C(N)=O,Potency,[4],"inconclusive: 0.196 µM [activator, single point]"
same,Potency,[5],inactive
C=CCCCCCCCCCCCC,activation,[4],inconclusive: 16%
same,Potency,[6],inactive
same,Potency,[3],"inconclusive: 21.9 µM [cytotoxic, single point]"
CC(C)CCCC(=O)O,Potency,[7],inactive
same,Potency,[3],inactive
Cc1cc(=O)[nH]c(C(C)C)n1,Potency,[7],inactive
same,Potency,[2],inactive
same,Potency,[5],"inconclusive: 34.4 µM [activator, partial curve, poor fit]"
O=C(O)c1c(Cl)cccc1Cl,Potency,[8],inactive
same,Potency,Aromatase (Homo sapiens),inactive
CCOC(=O)c1ccc(C2CCC(NC[C@H](O)COc3ccc(O)c(NS(C)(=O)=O)c3)CC2)cc1 (stereo partly drawn),Potency,[8],inactive
same,activation,[9],inconclusive: -12.4% [phenotype inactive]
same,Potency,[3],"inconclusive: 40.3 µM [cytotoxic, partial curve, poor fit]"
same,Potency,Aromatase (Homo sapiens),"inconclusive: 63.3 µM [inhibitor, single point]"
same,Potency,[10],"inconclusive: 56.4 µM [cytotoxic, single point]"
NC/C=C/C(=O)O,Potency,[11],inactive
CCc1ccc(Br)cc1,Potency,[11],inactive
same,Potency,[2],inactive
same,Potency,[3],inactive
same,Potency,[12],inactive
same,activation,[5],inconclusive: 2.81% [phenotype inactive] [at 95 µM]
same,Potency,[13],inactive
O=[N+]([O-])c1cccc(S(=O)(=O)O)c1,Potency,[11],"inconclusive: 15.6 µM [rising, single point]"
CCc1ccc(C)cc1,Potency,[11],"inconclusive: 67.9 µM [rising, partial curve, poor fit]"
same,Potency,[3],inactive
c1ccc(COCc2ccccc2)cc1,Potency,[11],"inconclusive: 28.5 µM [rising, single point]"
same,Potency,[2],inactive
NC(=O)c1ccccc1[N+](=O)[O-],Potency,[11],"inconclusive: 5.59 µM [rising, full curve, poor fit]"
CC(C)(C)C(=O)O,Potency,[11],inactive
CC1CCC(C(C)(C)S)C(=O)C1 (stereo not drawn),Potency,[11],inactive
CCOCCOCCOCC,Potency,[11],inactive
same,Potency,[9],inactive
